To fix the notation:
T1: RBFOX1 RRM (Homo sapiens, UniProt Q9NWB1 109-208)
T1 sequence: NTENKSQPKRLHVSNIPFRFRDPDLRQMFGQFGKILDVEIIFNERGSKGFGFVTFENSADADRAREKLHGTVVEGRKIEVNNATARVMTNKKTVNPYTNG

B1: CAGUUAC (DNA:RNA)
RNA: GGGAGACCGGAAUUCAGAUUGUCCCAGUUACUUAAAUCCCGUCGUAGCCACCA
DNA 1: CAATCTGAATTCCGGTCTCCC
DNA 2: TGGTGGCTACGACGGGATT
B2: UGAGUGG (DNA:RNA)
RNA: B1 RNA with C25U, A26G, G27A, U28G, A30G, C31G
DNA 1: CAATCTGAATTCCGGTCTCCC
DNA 2: TGGTGGCTACGACGGGATT
B3: AACUACC (DNA:RNA)
RNA: B1 RNA with C25A, G27C, U29A, A30C
DNA 1: CAATCTGAATTCCGGTCTCCC
DNA 2: TGGTGGCTACGACGGGATT
B4: CCGUGGA (DNA:RNA)
RNA: B1 RNA with A26C, U29G, A30G, C31A
DNA 1: CAATCTGAATTCCGGTCTCCC
DNA 2: TGGTGGCTACGACGGGATT
B5: GCGAUGG (DNA:RNA)
RNA: B1 RNA with C25G, A26C, U28A, A30G, C31G
DNA 1: CAATCTGAATTCCGGTCTCCC
DNA 2: TGGTGGCTACGACGGGATT
B6: AGGUCCA (DNA:RNA)
RNA: B1 RNA with C25A, A26G, U29C, A30C, C31A
DNA 1: CAATCTGAATTCCGGTCTCCC
DNA 2: TGGTGGCTACGACGGGATT
B7: GUGGCCA (DNA:RNA)
RNA: B1 RNA with C25G, A26U, U28G, U29C, A30C, C31A
DNA 1: CAATCTGAATTCCGGTCTCCC
DNA 2: TGGTGGCTACGACGGGATT
B8: UUACUGA (DNA:RNA)
RNA: B1 RNA with C25U, A26U, G27A, U28C, A30G, C31A
DNA 1: CAATCTGAATTCCGGTCTCCC
DNA 2: TGGTGGCTACGACGGGATT
B9: GCGCCGA (DNA:RNA)
RNA: B1 RNA with C25G, A26C, U28C, U29C, A30G, C31A
DNA 1: CAATCTGAATTCCGGTCTCCC
DNA 2: TGGTGGCTACGACGGGATT
B10: CUACAGU (DNA:RNA)
RNA: B1 RNA with A26U, G27A, U28C, U29A, A30G, C31U
DNA 1: CAATCTGAATTCCGGTCTCCC
DNA 2: TGGTGGCTACGACGGGATT
B11: GGGGUAA (DNA:RNA)
RNA: B1 RNA with C25G, A26G, U28G, C31A
DNA 1: CAATCTGAATTCCGGTCTCCC
DNA 2: TGGTGGCTACGACGGGATT
B12: CGCCUGU (DNA:RNA)
RNA: B1 RNA with A26G, G27C, U28C, A30G, C31U
DNA 1: CAATCTGAATTCCGGTCTCCC
DNA 2: TGGTGGCTACGACGGGATT
B13: UCUAACC (DNA:RNA)
RNA: B1 RNA with C25U, A26C, G27U, U28A, U29A, A30C
DNA 1: CAATCTGAATTCCGGTCTCCC
DNA 2: TGGTGGCTACGACGGGATT
B14: GCGCGUC (DNA:RNA)
RNA: B1 RNA with C25G, A26C, U28C, U29G, A30U
DNA 1: CAATCTGAATTCCGGTCTCCC
DNA 2: TGGTGGCTACGACGGGATT
B15: CUGACCA (DNA:RNA)
RNA: B1 RNA with A26U, U28A, U29C, A30C, C31A
DNA 1: CAATCTGAATTCCGGTCTCCC
DNA 2: TGGTGGCTACGACGGGATT
B16: AGAAGCG (DNA:RNA)
RNA: GGGAGACCGGAAUUCAGAUUGUCCAGAAGCGUUAAAUCCCGUCGUAGCCACCA
DNA 1: CAATCTGAATTCCGGTCTCCC
DNA 2: TGGTGGCTACGACGGGATT
B17: CCAAAAG (DNA:RNA)
RNA: B16 RNA with A25C, G26C, G29A, C30A
DNA 1: CAATCTGAATTCCGGTCTCCC
DNA 2: TGGTGGCTACGACGGGATT
B18: UGCCGGA (DNA:RNA)
RNA: B16 RNA with A25U, A27C, A28C, C30G, G31A
DNA 1: CAATCTGAATTCCGGTCTCCC
DNA 2: TGGTGGCTACGACGGGATT
B19: UCUGGAU (DNA:RNA)
RNA: B16 RNA with A25U, G26C, A27U, A28G, C30A, G31U
DNA 1: CAATCTGAATTCCGGTCTCCC
DNA 2: TGGTGGCTACGACGGGATT
B20: ACCUACU (DNA:RNA)
RNA: B16 RNA with G26C, A27C, A28U, G29A, G31U
DNA 1: CAATCTGAATTCCGGTCTCCC
DNA 2: TGGTGGCTACGACGGGATT
B21: CUGGUGU (DNA:RNA)
RNA: B1 RNA with A26U, U28G, A30G, C31U
DNA 1: CAATCTGAATTCCGGTCTCCC
DNA 2: TGGTGGCTACGACGGGATT
B22: UAGCGGG (DNA:RNA)
RNA: B16 RNA with A25U, G26A, A27G, A28C, C30G
DNA 1: CAATCTGAATTCCGGTCTCCC
DNA 2: TGGTGGCTACGACGGGATT
B23: GCACGUA (DNA:RNA)
RNA: B16 RNA with A25G, G26C, A28C, C30U, G31A
DNA 1: CAATCTGAATTCCGGTCTCCC
DNA 2: TGGTGGCTACGACGGGATT
B24: GUUUUAA (DNA:RNA)
RNA: B1 RNA with C25G, A26U, G27U, C31A
DNA 1: CAATCTGAATTCCGGTCTCCC
DNA 2: TGGTGGCTACGACGGGATT
B25: AUGUCAG (DNA:RNA)
RNA: B1 RNA with C25A, A26U, U29C, C31G
DNA 1: CAATCTGAATTCCGGTCTCCC
DNA 2: TGGTGGCTACGACGGGATT
B26: AAAAAGG (DNA:RNA)
RNA: B16 RNA with G26A, G29A, C30G
DNA 1: CAATCTGAATTCCGGTCTCCC
DNA 2: TGGTGGCTACGACGGGATT
B27: AAUUGCC (DNA:RNA)
RNA: B16 RNA with G26A, A27U, A28U, G31C
DNA 1: CAATCTGAATTCCGGTCTCCC
DNA 2: TGGTGGCTACGACGGGATT
B28: GGGUAAC (DNA:RNA)
RNA: B1 RNA with C25G, A26G, U29A
DNA 1: CAATCTGAATTCCGGTCTCCC
DNA 2: TGGTGGCTACGACGGGATT
B29: AAUGACU (DNA:RNA)
RNA: B16 RNA with G26A, A27U, A28G, G29A, G31U
DNA 1: CAATCTGAATTCCGGTCTCCC
DNA 2: TGGTGGCTACGACGGGATT
B30: GAAAAAU (DNA:RNA)
RNA: B16 RNA with A25G, G26A, G29A, C30A, G31U
DNA 1: CAATCTGAATTCCGGTCTCCC
DNA 2: TGGTGGCTACGACGGGATT
B31: CACUGAC (DNA:RNA)
RNA: B1 RNA with G27C, U29G
DNA 1: CAATCTGAATTCCGGTCTCCC
DNA 2: TGGTGGCTACGACGGGATT

Residue numbers refer to the chain shown, from its start. The list shows a part of the results.

In this assay the target is T1, RBFOX1 RRM. The experiment in a line: EMSA; HiTS-Eq, 1 nM pool, 10 min; buffer printed only for the single-RNA assays: 10 mM Tris pH 7.5, 150 mM NaCl, 3.4 mM EDTA, 0.001% NP-40, 30 C. The following applies: tags: His6 N-terminal (pET28a); label: 5' 32P. The essentials: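 A pool of RNA with 7 randomized nucleotides, 5′-radiolabelled and with DNA-annealed flanks, was equilibrated at 1 nM for 10 min in 50 µL with purified RbFox RRM, wild type or mutant, across increasing protein concentrations. Free RNA was separated by 8% native PAGE, excised, reverse-transcribed, barcoded by PCR and sequenced. Relative association constants were obtained from read-count changes of each RNA species versus the control reaction and normalised to the cognate motif.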
(In general: Mobility shift assays separate free from complexed probe on a gel.)
In the case of B1, the binding signal is 0.00619 KA relative to UGCAUGU.

For the molecule B2, the binding signal is 0.0137 KA relative to UGCAUGU.

Regarding B3, the binding signal was 0.000243 KA relative to UGCAUGU.

Consider B4, for which the binding signal is 0.00891 KA relative to UGCAUGU.

For the molecule B5, the binding signal is 0.0208 KA relative to UGCAUGU.

Consider B6, for which the binding signal was 0.00356 KA relative to UGCAUGU.

With B7, the binding signal is 0.0191 KA relative to UGCAUGU.

Consider B8, for which the binding signal is 0.0193 KA relative to UGCAUGU.

As for B9, the binding signal is 0.0146 KA relative to UGCAUGU.

For the molecule B10, the binding signal was 0.00554 KA relative to UGCAUGU.

On to B11, for which the binding signal was 0.0285 KA relative to UGCAUGU.

On to B12, for which the binding signal was 0.0302 KA relative to UGCAUGU.

Consider B13, for which the binding signal was 0.00232 KA relative to UGCAUGU.

As to B14, the binding signal was 0.0189 KA relative to UGCAUGU.

B15: the binding signal was 0.0053 KA relative to UGCAUGU.

In the case of B16, the binding signal was 0.0068 KA relative to UGCAUGU.

As for B17, the binding signal is 0.00128 KA relative to UGCAUGU.

B18: the binding signal is 0.0112 KA relative to UGCAUGU.

For the molecule B19, the binding signal was 0.00758 KA relative to UGCAUGU.

For the molecule B20, the binding signal was 0.000725 KA relative to UGCAUGU.

As to B21, the binding signal is 0.0254 KA relative to UGCAUGU.

On to B22, for which the binding signal was 0.00967 KA relative to UGCAUGU.

In the case of B23, the binding signal was 0.0281 KA relative to UGCAUGU.

As to B24, the binding signal was 0.01 KA relative to UGCAUGU.

For the molecule B25, the binding signal is 0.0117 KA relative to UGCAUGU.

For B26, the binding signal is 0.00235 KA relative to UGCAUGU.

Consider B27, for which the binding signal was 0.00637 KA relative to UGCAUGU.

As to B28, the binding signal is 0.022 KA relative to UGCAUGU.

With B29, the binding signal is 0.00439 KA relative to UGCAUGU.

On to B30, for which the binding signal was 0.00129 KA relative to UGCAUGU.

For B31, the binding signal is 0.00646 KA relative to UGCAUGU.

(Values after article PMC9911399, “Two distinct binding modes provide the RNA-binding protein RbFox with extraordinary sequence specificity”.)
